Test results as given in PubChem BioAssay AID485344 (National Center for Advancing Translational Sciences (NCATS), 2010).
Screen size: about 340,000 compounds; about 6,900 (2%) were called active. Cut-off read from the data, not from the text of the source: active = inhibition above about 30%; inactive = below that, where a call was filed. The list shows a part of the results, in another mix than the full data. The source gives no active or inactive call for entries shown without one.

biological target: D(2) dopamine receptor (Homo sapiens) (UniProt P14416); experiment: HTS Assay for Allosteric Antagonists of the Human D2 Dopamine Receptor: Primary Screen for Antagonists; conditions: HEK293 TREx D2 cells, calcium flux, dopamine EC80; at 10 µM; stronger effect = higher value; note: 0% is about no effect
UniProt P14416, sequence (P14416 whole entry, looked up): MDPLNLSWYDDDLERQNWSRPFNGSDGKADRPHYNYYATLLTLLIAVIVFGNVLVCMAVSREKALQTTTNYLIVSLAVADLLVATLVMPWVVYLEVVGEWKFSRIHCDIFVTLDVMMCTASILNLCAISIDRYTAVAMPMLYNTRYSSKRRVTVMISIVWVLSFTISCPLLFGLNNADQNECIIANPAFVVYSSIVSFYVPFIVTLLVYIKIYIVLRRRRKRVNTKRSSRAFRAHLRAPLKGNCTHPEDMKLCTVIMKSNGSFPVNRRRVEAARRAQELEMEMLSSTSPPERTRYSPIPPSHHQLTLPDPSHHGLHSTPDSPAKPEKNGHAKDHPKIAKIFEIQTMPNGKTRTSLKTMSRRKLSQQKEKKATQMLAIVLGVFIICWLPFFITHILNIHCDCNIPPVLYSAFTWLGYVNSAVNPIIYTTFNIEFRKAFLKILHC
How it was run: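 Compounds are added to dye-loaded, induced HEK293 T-REx cells coupled to calcium release via D2; after a 3 min kinetic read an EC80 dopamine stimulus is given and fluorescence is recorded for 3 more min.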

Structure (SMILES) | inhibition
CC(=O)Nc1ccc(S(=O)(=O)NC2(C(F)(F)F)NC(=O)N(c3ccc(C)cc3)C2=O)cc1 (configuration not stated) | 1.18%
O=C(c1cccc([N+](=O)[O-])c1)N1c2ncnn2C2(CCCCC2)[C@@H]2CCCC[C@@H]21 | 10.3%
Cc1ccc(S(=O)(=O)c2cnc(SCC(=O)Nc3ccc4c(c3)OCCO4)[nH]c2=O)cc1 | -4.93%
CN(C1CCCCC1)S(=O)(=O)c1ccc2c(c1)c(=O)c(C(=O)NCCc1ccc(Cl)cc1)cn2C | 2%
CCOC(=O)C1CCN(Cc2cccc(Oc3ccc(Cl)cc3)c2)CC1 | active: 71.7%
CSCCC(NS(=O)(=O)c1ccc2c(c1)oc(=O)n2C)C(=O)NCCc1ccc(C)cc1 (configuration not stated) | 3.19%
CCS(=O)(=O)N1CCC(C(=O)NCCC(C)C)CC1 | -11.7%
O=S(=O)(Cc1ccccc1)N1CCN(C2Cc3ccccc3C2)CC1 | active: 30.3%
Cc1ccc(-c2nnc(Nc3cccc(Cl)c3)c3ccccc23)cc1S(=O)(=O)NCC1CCCO1 (configuration not stated) | 8.44%
COc1cccc(CN(Cc2ccco2)c2cnc(S(C)(=O)=O)nc2C(=O)Nc2cccc(Cl)c2C)c1 | -1.68%
Cn1c(SCC(=O)N2CCCc3ccccc32)ncc(C(=O)Nc2ccc(Cl)cc2)c1=O | 9.58%
CCc1nc2nc(C)cc(Nc3ccc(OC)cc3)n2n1 | -2.54%
CCCCOc1ccccc1Cn1c(=O)oc2ccc(C)cc21 | active: 31.4%
CS(=O)(=O)c1ncc(N(Cc2ccco2)Cc2ccco2)c(C(=O)Nc2ccccc2Br)n1 | 22.2%
Cc1ccc(-n2ncc(C(=O)NC3CCCC3)c2C2CCN(C(=O)OC(C)(C)C)CC2)c(C)c1 | -6.88%
CC1=C(C(=O)OCc2ccc(C)cc2)C(c2c(Cl)cccc2Cl)CC(=O)N1 (configuration not stated) | -3.55%
Cc1ccc(C)c(NS(=O)(=O)c2ccc3c4c(cccc24)C(=O)N3)c1 | 6.26%
CNc1nc(Oc2ccc(=O)n(C)n2)nc(N2CCOCC2)n1 | 3.17%
COc1cccc(Cn2nnc3c(=O)[nH]c(C4CCCN(C(=O)c5ccc(C)cc5)C4)nc32)c1 (configuration not stated) | 11.4%
CCOc1cccc2sc(Nc3nc4ccc(NC(C)=O)cc4s3)nc12 | active: 30.8%
Clc1ccc(CN2CCN(c3ncccn3)CC2)cc1 | active: 84.9%

Structure (SMILES) | inhibition
COc1ccc(OC)c(NC(=O)c2cc3c(s2)-c2ccccc2SC3)c1 | -9.36%
Cc1c(NS(=O)(=O)c2cccc(C(=O)O)c2)c(=O)n(-c2ccccc2)n1C | 0.275%
COc1ccccc1-c1c(C)nn2c(N3CCN(c4cccc(Cl)c4)CC3)cc(C)nc12 | 4.3%
O=C(CSc1nnc(CNC(=O)c2c(F)cccc2Cl)o1)Nc1ccccc1F | 5.82%
Cc1ccc(OCCCCN2CCCC(C)C2)c([N+](=O)[O-])c1 (configuration not stated) | active: 90.8%
CCC(=O)N1c2ccccc2CC1C(=O)NCc1ccccc1C (configuration not stated) | 26.6%
O=C(Nc1cc(-c2nc3cc(Cl)ccc3o2)ccc1Cl)c1cccs1 | -8.07%
CC1CCCC(C)N1C(=S)NCc1ccco1 (configuration not stated) | active: 30.5%
C#CC(C)(CC)NC(=O)Cn1nnc(-c2ccc(OCc3ccccc3F)cc2)n1 (configuration not stated) | -3.82%
NC[C@@H]1O[C@H](C23CC4CC(CC(C4)C2)C3)Cc2c1ccc(O)c2O | active: 65.8%
CCOc1ccccc1NC(=O)CC1C(=O)NCCN1C(=O)c1ccc(F)cc1 (configuration not stated) | -0.541%
COc1ccc(OC)c(Nc2nc3ccccc3n3c(C)nnc23)c1 | 4.48%
COc1cc(NC(=O)CSc2nc(C)c(C)c(C)n2)cc(OC)c1 | active: 48.3%
Cc1ccc(NC(=O)c2ncn(-c3ccccc3)n2)cc1Cl | 10.2%
Cc1nc(-n2nc(C)c(Cc3ccccc3Cl)c2C)sc1C(=O)N1CCCCC1C (configuration not stated) | -3.85%
COc1ccc(-c2nc(C(=O)Nc3cccc(C(C)=O)c3)nn2-c2ccc(Cl)cc2)cc1 | 3.38%
CCC(=O)Oc1ccc(C(=O)Nc2c[nH]c(=O)[nH]c2=O)cc1 | active: 34.6%
Cc1ccc(NC(=O)CS(=O)(=O)c2nc(-c3ccc(C)cc3)cn2-c2ccc(C)cc2)cc1 | 13.3%
CCCCN(C)CCNC(=O)c1cc(=O)[nH]c2ccc(S(=O)(=O)N3CCCCCC3)cc12 | -11.7%
Cc1ccc(CNC(=O)c2cnc(N(C)C)nc2)cc1 | -1.14%
Cc1cc(NC(=O)c2ccc(-c3ccc(Cl)cc3)o2)cc(-c2nc3ncccc3o2)c1O | 5.21%

Structure (SMILES) | inhibition
COCCNC(=O)C(=O)NCC(c1ccc2c(c1)OCO2)N1CCOCC1 (configuration not stated) | 24%
COC(=O)c1ccc(OCC(O)Cn2cnc3cc(C)c(C)cc32)cc1 (configuration not stated) | 6.35%
CCN(C(=O)CSc1ncc(S(=O)(=O)c2ccc(C)c(Cl)c2)c(=O)[nH]1)c1cccc(C)c1 | -16.2%
COCCCNC(=O)c1c(NC(=O)c2nc(S(C)(=O)=O)ncc2Cl)sc2c1CCCC2 | -8.41%
Cc1cc2ccccc2n1CCNC(=O)COc1ccccc1 | active: 39%
Cc1cc(NC(=O)CCCn2c(C)c3cnn(-c4ccccc4)c(=O)c3c2C)ccc1Br | -9.99%
CCOc1ccccc1NC(=O)CN1C(=O)CC(c2ccco2)Sc2ccccc21 (configuration not stated) | -1.57%
Cc1cc(C)cc(C(=O)N(Cc2nc(-c3ccc(Cl)cc3)no2)C(C)C)c1 | -9.16%
Cc1cccc(N(CC(=O)Nc2ccc(Br)cc2)S(C)(=O)=O)c1C | 12.8%
COc1ccc(C(=O)NCc2ccc3c(c2)CCN3C(=O)c2ccncc2)cc1 | -12.2%
COc1ccc(OC)c(NC(=O)c2c(NCc3ccc(C)o3)sc3c2CCC(C)C3)c1 (configuration not stated) | -2.01%
CC(C)c1ccc(S(=O)(=O)c2nnn3c2nc(NC2CCCC2)c2sccc23)cc1 | -0.374%
Cc1ccc(CSCC(=O)N2CCN(c3ccc(F)cc3)CC2)cc1 | 16.1%
CC(=O)c1cccc(S(=O)(=O)NCCc2csc3nc(-c4ccc(F)cc4)nn23)c1 | -9.23%
Cc1nc(CC(=O)Nc2cccc(C)c2C)cs1 | -16.3%
CCc1nn2c(=O)c(S(=O)(=O)Nc3ccc(OC)c(Cl)c3)c(C)nc2s1 | -7.21%
Cc1ccc(CSc2nc3ccc(NC(=O)C(C)C)cc3s2)cc1 | 18.3%
COc1cc(/C=C2\SC(c3ccc(C)cc3)=NC2=O)ccc1O | active: 32.1%
CCN(Cc1ccccc1)C(=O)Cn1c(=O)n(Cc2ccccc2)c(=O)c2c1c1cc(OC)ccc1n2C | -2.8%
COc1ccc(C(CC(=O)Nc2ccc(C)c(C)c2)N2Cc3ccccc3C2=O)cc1OC (configuration not stated) | 8.15%
